Reference: paper PMC12820563, “FoxP3 forms a head-to-head dimer in vivo and stabilizes its multimerization on adjacent microsatellites”
The other results are listed elsewhere or left out.

Target: T1, MBP-FoxP1dN (Mus musculus, UniProt P58462 326-579)
T1 sequence: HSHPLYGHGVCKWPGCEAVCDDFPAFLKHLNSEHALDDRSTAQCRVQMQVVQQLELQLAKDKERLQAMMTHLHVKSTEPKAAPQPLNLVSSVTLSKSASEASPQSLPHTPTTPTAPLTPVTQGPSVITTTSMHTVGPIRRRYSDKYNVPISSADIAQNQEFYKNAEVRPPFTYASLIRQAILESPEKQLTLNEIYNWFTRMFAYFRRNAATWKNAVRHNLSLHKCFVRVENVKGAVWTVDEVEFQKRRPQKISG
Assay: PD-seq (MBP pull-down with sequencing); 20 mM Tris-HCl pH 7.5, 100 mM NaCl, 1.5 mM MgCl2, 0.4 uM protein, 0.1 uM dsDNA library, 30 min, room temperature, amylose pull-down; high values mean tight binding
Details: protein: recombinant; tags: His6-MBP; chain copies: 2; dsDNA, one strand shown
In short: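 Protein and DNA were mixed at 0.4 µM and 0.1 µM and held for 30 min at room temperature in Tris pH 7.5 buffer with NaCl and MgCl2; the protein was a His6-MBP-tagged, N-terminally truncated mouse FoxP3 or FoxP1 fragment from E. coli, and the DNA a Klenow-filled double-stranded degenerate library. Amylose resin captured the complexes, which were washed three times. Binding is read as reads-per-million enrichment of pull-down versus input after Illumina sequencing, with replicates pooled.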

Sequence | binding signal
GATGATTGTTCTCCCAGCTGATGAATTCGCAATATCGAGTAAACAAATTTTCCTAATCTTTCTGTTCAAGCGCCATCTAC | 1.02 RPM ratio (pull-down/input)
GATGATTGTTCTCCCAGCTGATGAATTTCTGGCATCGAGTAAACAAATTTTCCTAATCTTTCTGTTCAAGCGCCATCTAC | 1.02 RPM ratio (pull-down/input)
GATGATTGTTCTCCCAGCTGATGAATTGGACTCGTCGAGTAAACAAATTTTCCTAATCTTTCTGTTCAAGCGCCATCTAC | 0.753 RPM ratio (pull-down/input)
GATGATTGTTCTCCCAGCTGATGAATTCATGCACTCGAGTAAACAAATTTTCCTAATCTTTCTGTTCAAGCGCCATCTAC | 1.04 RPM ratio (pull-down/input)
GATGATTGTTCTCCCAGCTGATGAATTCTACCAATCGAGTAAACAAATTTTCCTAATCTTTCTGTTCAAGCGCCATCTAC | 1.14 RPM ratio (pull-down/input)
GATGATTGTTCTCCCAGCTGATGAATTCATATAGTCGAGTAAACAAATTTTCCTAATCTTTCTGTTCAAGCGCCATCTAC | 0.956 RPM ratio (pull-down/input)
GATGATTGTTCTCCCAGCTGATGAATTGGGTAGCTCGAGTAAACAAATTTTCCTAATCTTTCTGTTCAAGCGCCATCTAC | 0.794 RPM ratio (pull-down/input)
GATGATTGTTCTCCCAGCTGATGAATTGAGAACTTCGAGTAAACAAATTTTCCTAATCTTTCTGTTCAAGCGCCATCTAC | 0.853 RPM ratio (pull-down/input)
GATGATTGTTCTCCCAGCTGATGAATTATTCTATTCGAGTAAACAAATTTTCCTAATCTTTCTGTTCAAGCGCCATCTAC | 0.997 RPM ratio (pull-down/input)
GATGATTGTTCTCCCAGCTGATGAATTCATGTGGTCGAGTAAACAAATTTTCCTAATCTTTCTGTTCAAGCGCCATCTAC | 0.926 RPM ratio (pull-down/input)
GATGATTGTTCTCCCAGCTGATGAATTGTACCCATCGAGTAAACAAATTTTCCTAATCTTTCTGTTCAAGCGCCATCTAC | 0.989 RPM ratio (pull-down/input)
GATGATTGTTCTCCCAGCTGATGAATTTCTGCAGTCGAGTAAACAAATTTTCCTAATCTTTCTGTTCAAGCGCCATCTAC | 0.883 RPM ratio (pull-down/input)
GATGATTGTTCTCCCAGCTGATGAATTTTTATAATCGAGTAAACAAATTTTCCTAATCTTTCTGTTCAAGCGCCATCTAC | 1.3 RPM ratio (pull-down/input)
GATGATTGTTCTCCCAGCTGATGAATTATGATTCTCGAGTAAACAAATTTTCCTAATCTTTCTGTTCAAGCGCCATCTAC | 0.982 RPM ratio (pull-down/input)
GATGATTGTTCTCCCAGCTGATGAATTCTCCTGCTCGAGTAAACAAATTTTCCTAATCTTTCTGTTCAAGCGCCATCTAC | 0.838 RPM ratio (pull-down/input)
GATGATTGTTCTCCCAGCTGATGAATTTTACAAATCGAGTAAACAAATTTTCCTAATCTTTCTGTTCAAGCGCCATCTAC | 1.1 RPM ratio (pull-down/input)
GATGATTGTTCTCCCAGCTGATGAATTATACGCTTCGAGTAAACAAATTTTCCTAATCTTTCTGTTCAAGCGCCATCTAC | 1.09 RPM ratio (pull-down/input)
GATGATTGTTCTCCCAGCTGATGAATTGAGTACCTCGAGTAAACAAATTTTCCTAATCTTTCTGTTCAAGCGCCATCTAC | 0.844 RPM ratio (pull-down/input)
